# Data from the supplement of paper PMC8728848.
# This is one part of the list.
# Legend:
# Assay in all cases: glycan array binding signal (z-score within array); higher = stronger binding
# Details in all cases: glycan notation: IUPAC condensed, linker removed
# [1] = target: Neu5Ac(a2-3)[GalNAc(b1-4)]Gal(b1-3)GalNAc(b1-4)[Neu5Ac(a2-3)]Gal(b1-4)Glc
# How it was run: (§1)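 The Consortium for Functional Glycomics database supplied 3228 glycan arrays, of which those lacking an available protein sequence were dropped. The binding signal, a within-array Z-score, was averaged across arrays of the same protein sequence and across linkers. Negative scores can be read as non-binding.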
# [2] = target: Neu5Ac(a2-3)[GalNAc(b1-4)]Gal(b1-4)Glc
# How it was run: as §1
# [3] = target: Neu5Ac(a2-6)Gal(b1-3)GlcNAc(b1-3)[Fuc(a1-3)[Gal(b1-4)]GlcNAc(b1-6)]Gal(b1-4)Glc
# How it was run: as §1
# [4] = target: Neu5Ac(a2-6)Gal(b1-3)GlcNAc(b1-3)[Gal(b1-4)GlcNAc(b1-6)]Gal(b1-4)Glc
# How it was run: as §1
# Neu5Ac(a2-6)Gal(b1-4)Glc = target: Neu5Ac(a2-6)Gal(b1-4)Glc
# How it was run: as §1
# [5] = target: Neu5Ac(a2-6)Gal(b1-4)GlcNAc
# How it was run: as §1
# [6] = target: Neu5Ac(a2-6)Gal(b1-4)GlcNAc(b1-2)Man(a1-3)[Neu5Ac(a2-6)Gal(b1-4)GlcNAc(b1-2)Man(a1-6)]Man(b1-4)GlcNAc(b1-4)GlcNAc
# How it was run: as §1
# [7] = target: Neu5Ac(a2-6)Gal(b1-4)GlcNAc(b1-2)Man(a1-3)[Neu5Gc(a2-6)Gal(b1-4)GlcNAc(b1-2)Man(a1-6)]Man(b1-4)GlcNAc(b1-4)GlcNAc
# How it was run: as §1
# [8] = target: Neu5Ac(a2-6)Gal(b1-4)GlcNAc(b1-2)[Neu5Ac(a2-3)Gal(b1-4)GlcNAc(b1-4)]Man(a1-3)[Neu5Ac(a2-3)Gal(b1-4)GlcNAc(b1-2)Man(a1-6)]Man(b1-4)GlcNAc(b1-4)GlcNAc
# How it was run: as §1
# [9] = target: Neu5Ac(a2-6)Gal(b1-4)GlcNAc(b1-3)Gal(b1-4)Glc
# How it was run: as §1
# [10] = target: Neu5Ac(a2-6)Gal(b1-4)GlcNAc(b1-3)Gal(b1-4)[Fuc(a1-3)]Glc
# How it was run: as §1
# [11] = target: Neu5Ac(a2-6)Gal(b1-4)GlcNAc(b1-3)[Neu5Ac(a2-6)Gal(b1-4)GlcNAc(b1-6)]Gal(b1-4)Glc
# How it was run: as §1
# [12] = target: Neu5Ac(a2-6)Gal(b1-4)GlcNAc(b1-6)[Gal(b1-3)GlcNAc(b1-3)]Gal(b1-4)Glc
# How it was run: as §1
# [13] = target: Neu5Ac(a2-6)Gal(b1-4)[Fuc(a1-3)]GlcNAc(b1-3)Gal(b1-4)Glc
# How it was run: as §1
# Neu5Ac(a2-6)GalNAc = target: Neu5Ac(a2-6)GalNAc
# How it was run: as §1
# Neu5Ac(a2-8)Neu5Ac = target: Neu5Ac(a2-8)Neu5Ac
# How it was run: as §1
# [14] = target: Neu5Ac(a2-8)Neu5Ac(a2-3)Gal(b1-3)GalNAc(b1-4)[Neu5Ac(a2-3)]Gal(b1-4)Glc
# How it was run: as §1
# [15] = target: Neu5Ac(a2-8)Neu5Ac(a2-3)Gal(b1-3)GalNAc(b1-4)[Neu5Ac(a2-8)Neu5Ac(a2-3)]Gal(b1-4)Glc
# How it was run: as §1
# [16] = target: Neu5Ac(a2-8)Neu5Ac(a2-3)Gal(b1-4)Glc
# How it was run: as §1
# [17] = target: Neu5Ac(a2-8)Neu5Ac(a2-3)[Gal(b1-3)GalNAc(b1-4)]Gal(b1-4)Glc
# How it was run: as §1
# [18] = target: Neu5Ac(a2-8)Neu5Ac(a2-3)[GalNAc(b1-4)]Gal(b1-4)Glc
# How it was run: as §1
# [19] = target: Neu5Ac(a2-8)Neu5Ac(a2-8)Neu5Ac
# How it was run: as §1
# [20] = target: Neu5Ac(a2-8)Neu5Ac(a2-8)Neu5Ac(a2-8)Neu5Ac
# How it was run: as §1
# [21] = target: Neu5Ac(a2-8)Neu5Ac(a2-8)Neu5Ac(a2-8)Neu5Ac(a2-8)Neu5Ac
# How it was run: as §1
# [22] = target: Neu5Ac(a2-8)Neu5Ac(a2-8)Neu5Ac(a2-8)Neu5Ac(a2-8)Neu5Ac(a2-8)Neu5Ac
# How it was run: as §1
# [23] = target: Neu5Ac(a2-8)Neu5Ac(a2-8)Neu5Ac(a2-8)Neu5Ac(a2-8)Neu5Ac(a2-8)Neu5Ac(a2-8)Neu5Ac
# How it was run: as §1
# [24] = target: Neu5Ac(a2-8)Neu5Ac(a2-8)Neu5Ac(a2-8)Neu5Ac(a2-8)Neu5Ac(a2-8)Neu5Ac(a2-8)Neu5Ac(a2-8)Neu5Ac
# How it was run: as §1
# [25] = target: Neu5Ac(a2-8)Neu5Ac(a2-8)Neu5Ac(a2-8)Neu5Ac(a2-8)Neu5Ac(a2-8)Neu5Ac(a2-8)Neu5Ac(a2-8)Neu5Ac(a2-8)Neu5Ac
# How it was run: as §1
# [26] = target: Neu5Ac(a2-8)Neu5Ac(a2-8)Neu5Ac(a2-8)Neu5Ac(a2-8)Neu5Ac(a2-8)Neu5Ac(a2-8)Neu5Ac(a2-8)Neu5Ac(a2-8)Neu5Ac(a2-8)Neu5Ac
# How it was run: as §1
# [27] = target: Neu5Ac(a2-8)Neu5Ac(a2-8)Neu5Ac(a2-8)Neu5Ac(a2-8)Neu5Ac(a2-8)Neu5Ac(a2-8)Neu5Ac(a2-8)Neu5Ac(a2-8)Neu5Ac(a2-8)Neu5Ac(a2-8)Neu5Ac
# How it was run: as §1
# [28] = target: Neu5Ac(a2-9)Neu5Ac(a2-3)Gal(b1-4)Glc
# How it was run: as §1
# Neu5Ac(b2-3)Gal(b1-4)Glc = target: Neu5Ac(b2-3)Gal(b1-4)Glc
# How it was run: as §1
# Neu5Ac(b2-6)Gal(b1-4)Glc = target: Neu5Ac(b2-6)Gal(b1-4)Glc
# How it was run: as §1
# [29] = target: Neu5Ac9Ac(a2-6)Gal(b1-4)GlcNAc
# How it was run: as §1
# [30] = target: Neu5Gc(a2-3)Gal(b1-3)GlcNAc(b1-3)Gal(b1-4)Glc
# How it was run: as §1
# Neu5Gc(a2-3)Gal(b1-4)Glc = target: Neu5Gc(a2-3)Gal(b1-4)Glc
# How it was run: as §1
# [31] = target: Neu5Gc(a2-3)Gal(b1-4)[Fuc(a1-3)]GlcNAc(b1-3)Gal
# How it was run: as §1
# [32] = target: Neu5Gc(a2-3)[GalNAc(b1-4)]Gal
# How it was run: as §1
binder,measurement,setting,value
"MIC1 (Toxoplasma gondii), O00834 (protein) VGPEAYGEASHSHSPASGRYIQQMLDQRCQEIAAELCQSGLRKMCVPSSRIVARNAVGITHQNTLQWRCFDTASLLESNQENNGVNCVDDCGHTIPCPGGVHRQNSNHATRHEILSKLVEEGVQRFCSPYQASANKYCNDKFPGTIARRSKGFGNNVEVAWRCYEKASLLYSVYAECASNCGTTWYCPGGRRGTSTELDKRHYTEEEGIRQAIGSVDSPCSEVEVCLPKDENPPLCLDESGQISRT",glycan array binding signal (z-score),[1],1.29
same,glycan array binding signal (z-score),[2],2.98
same,glycan array binding signal (z-score),[3],-0.408
same,glycan array binding signal (z-score),[4],-0.332
same,glycan array binding signal (z-score),Neu5Ac(a2-6)Gal(b1-4)Glc,-0.342
same,glycan array binding signal (z-score),[5],-0.277
same,glycan array binding signal (z-score),[6],0.047
same,glycan array binding signal (z-score),[7],-0.013
same,glycan array binding signal (z-score),[8],1.84
same,glycan array binding signal (z-score),[9],-0.205
same,glycan array binding signal (z-score),[10],-0.348
same,glycan array binding signal (z-score),[11],-0.268
same,glycan array binding signal (z-score),[12],-0.373
same,glycan array binding signal (z-score),[13],-0.412
same,glycan array binding signal (z-score),Neu5Ac(a2-6)GalNAc,0.975
same,glycan array binding signal (z-score),Neu5Ac(a2-8)Neu5Ac,-0.43
same,glycan array binding signal (z-score),[14],1.68
same,glycan array binding signal (z-score),[15],-0.411
same,glycan array binding signal (z-score),[16],-0.451
same,glycan array binding signal (z-score),[17],-0.443
same,glycan array binding signal (z-score),[18],-0.44
same,glycan array binding signal (z-score),[19],-0.354
same,glycan array binding signal (z-score),[20],0.178
same,glycan array binding signal (z-score),[21],1.04
same,glycan array binding signal (z-score),[22],0.202
same,glycan array binding signal (z-score),[23],0.074
same,glycan array binding signal (z-score),[24],-0.072
same,glycan array binding signal (z-score),[25],-0.104
same,glycan array binding signal (z-score),[26],-0.247
same,glycan array binding signal (z-score),[27],-0.322
same,glycan array binding signal (z-score),[28],-0.386
same,glycan array binding signal (z-score),Neu5Ac(b2-3)Gal(b1-4)Glc,-0.478
same,glycan array binding signal (z-score),Neu5Ac(b2-6)Gal(b1-4)Glc,-0.475
same,glycan array binding signal (z-score),[29],-0.443
same,glycan array binding signal (z-score),[30],2.33
same,glycan array binding signal (z-score),Neu5Gc(a2-3)Gal(b1-4)Glc,2.13
same,glycan array binding signal (z-score),[31],-0.125
same,glycan array binding signal (z-score),[32],4.78
